From the supplement of paper PMC12632987
The full ranking holds about 1,800 sequences; the median of “median log2 fold change of GCK-ALFA target abundance (FLAG IP / Myc IP barcode read proportion)” is about 0.14, and the lowest 2% start at about -0.84. The list shows a part of the results.

T1: TRAF2, Q12933
T1 chain: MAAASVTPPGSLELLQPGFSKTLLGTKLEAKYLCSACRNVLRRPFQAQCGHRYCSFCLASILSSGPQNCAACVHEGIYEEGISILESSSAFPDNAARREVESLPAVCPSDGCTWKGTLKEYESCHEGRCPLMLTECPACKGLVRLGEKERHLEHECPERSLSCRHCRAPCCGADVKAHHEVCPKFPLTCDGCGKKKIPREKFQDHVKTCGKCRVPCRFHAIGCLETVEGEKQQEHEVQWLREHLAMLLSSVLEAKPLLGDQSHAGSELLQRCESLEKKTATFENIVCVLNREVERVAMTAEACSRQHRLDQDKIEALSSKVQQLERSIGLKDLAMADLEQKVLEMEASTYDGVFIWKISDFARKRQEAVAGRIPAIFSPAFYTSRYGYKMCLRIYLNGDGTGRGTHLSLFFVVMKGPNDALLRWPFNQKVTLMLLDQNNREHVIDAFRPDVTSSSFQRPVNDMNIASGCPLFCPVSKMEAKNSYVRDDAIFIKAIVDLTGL

B1: traf2_out_14_149_1234 (protein)
chain: SAEAELFKAAAEMYEKAAEALKEVLKLLEEGKVEEAKKLLKETIKELREYGEKHGVTVSIVFELEEILKLLDENVEEAKKRAKEALERAKSAAEAARSLA
B2: traf2_out_8_174_2561 (protein)
chain: KERERLKRAANLGLKWQEKIDEIKKKREELEKESLEKAVAYTEKESAALLKEIEEEAKRFKEEEDEEEYELLNRVLNSARTRVENLLKGTKILAEAKKKA
B3: traf2_out_9_108_2589 (protein)
chain: MSREEELEETYERVLALVREFLERFPVPEELREALEAAIEQAERLRAEGLKEEAIVLLAIDAARVAYELGDEAVEWLLAELERIDPRAASAARRMVELLK
B4: traf2_out_1_158_906 (protein)
chain: STAVNTLYAVATSIADVYAELAKERGLEKAAALLEKLKEDIKELYEKNKNASLEEFAKKVLELIEEKEKESESLPEEDKALVDIAFRQIKSGVEQVVKLA
B5: traf2_out_16_171_1438 (protein)
chain: SAAAAEEALKAEMEAEVQRLIDRMETAVEMTPLIMKETGLSKEQIAKGVRSTFTDRIEALRARWAERTKDASPEVKAHVAELLARAEAALDEAIAAILAK
B6: traf2_out_13_95_1102 (protein)
chain: SRELAEEIMKIADEMIDKANEILEELLKIAKEKGVAEEEVKEALYLAEHRSIREAIHKLKELAKEYPELKEEFEEAIEKLEKLIEEAGKKVAELIKEEKE
B7: traf2_out_9_17_2623 (protein)
chain: AEAKKKEQEDALEVVEELLKKLIEEGLITEEEAKEILEKVKKAIEEGKSVDEVKALFLGSIASILLFKKKYDVKTAQKIVGEVYRRYNELMAERKAERAA
B8: traf2_out_6_156_2416 (protein)
chain: MVEEILKEALEKVKELIKELAKAPESKKIQYISKIAGTAYRALQKLREAGASLEEIEEFAKRFLEETKKLAKEAGLPEDTINLLLSALQAVFDVAIAEAK
B9: traf2_out_14_149_1260 (protein)
chain: SATEERRRALREALELFERAAELLAAAIAAGSNDLDVEELRRLLEEAREILSKQGFVLGSLLAIEELLEEAEELTEEDLRRLLELAERAAESLEVLAEML
B10: traf2_out_17_162_1589 (protein)
chain: AELEERLKRIEERLEELEKELEELKKKLERIKELSKEELTDLLVEASEKRREARELLVEIESLKDELPAEEYERLSTRAEELAEEFQRIANAFYNELLKK
B11: traf2_out_6_169_2493 (protein)
chain: SEKEKLKKELERHKNNAKDLLNIAKTILEQVKKKKDKEYIKNALEAMETMLNALKRQYDLAIEAATKLGNEEEAKKLKEQKEKDTAEIQAYIDEIEKLLK
B12: traf2_out_1_158_923 (protein)
chain: DTKKKLMLGVVELIGQNAIDSARDRGDEETAAKLEEVVEEIVKLVKELLIEKNKSVEEVIEAIDKLAEEAAAKADPETAAEIERLRRQIISGLRQVDKLM
B13: traf2_out_18_117_1767 (protein)
chain: SRREEIIERLEEIAERLGRAASKLGKAVLENWEKLTPEEKSEAMDVLADLTEVRRKALLLIQEIREENLPVEEAEKRLEELEKEAEKALKEAEEMIEKIE
B14: traf2_out_13_95_1196 (protein)
chain: EEEKRKKYKEETNKIADELLDHADAVIDRIEAATGDPALGAELRRVLDLHGVRALIHFIREQAAARPEYRALFEEAAESLEAKRREAGRRVAEKEKEIEE
B15: traf2_out_13_95_1137 (protein)
chain: SAETAEEIMAVSDEMLDKVDEILKELLEEAKKKGIGVEEIEEVLYLARYQSVNEAIHKLEKLAKEKPEMKEELEEAIKKIREIRREAGRRVAEILKKAKE
B16: traf2_out_6_3_2513 (protein)
chain: SDEEERRRNEEALEEASEMSPETLKRAARTALARLKALVADPNATETDVLAAASFITTLLEILRRNAEKHPELAEELAAFAAEVEAEMEALLAEWKAKRA
B17: traf2_out_17_162_1630 (protein)
chain: SPLEEEIARYKKELEEIRKKVKELEEKAKNIEKLSKEELTDLLVEASEARRKARELAERIEELRKKHNREELDELLEEARELAEKFQRIANLFYNELLKK
B18: traf2_out_6_166_2474 (protein)
chain: DEELLARIREVVEKFSEYSPEDIIEAFEKIAKERSDHRAIMARQLASGVRKAQKAGLPITTIISAMADGWIALGVDPEDILELLEEVLKEVEKIRKEKEE
B19: traf2_out_6_166_2466 (protein)
chain: EEELLARIREIARRLGEYEPEVVIEAAERVAAELDDERALLARQLASGVRQGQKAGLPTETVVTALADGFIALGVPVEDILELLERVLRQAEELAREREA
B20: traf2_out_15_48_1360 (protein)
chain: STEALRATAREVADLIDATLDEVAEELRALLPQAPPSVRPLLERAIEVASRHRSINDVIALLDQAIAQADPELAARLEALRARLLETRRRASALVNETLA
B21: traf2_out_17_162_1536 (protein)
chain: SPEDERLAELQKRLEELEKKLEELEKKLKNIEKLSKEELTDLLVEASELRREARELAEELRELAEKTGSPEAEELRERAEELAEKLQRIANEIYKELEKK
B22: traf2_out_11_79_935 (protein)
chain: EEKREELLRLLEEALRLLEELIKKLEAGTISPEERAEMLDEIERLLQRAAMLALELGLSDVLVEISKAKRYVRLAYSGDLEALRKAKEHLERAIELVKKE
B23: traf2_out_11_104_639 (protein)
chain: LTREQAREFNDFAMAKEDEARAVAAELAAALEAAGETAAAARVRAALAHPGAGISTFRNLLEDLLPTLSPAAAAQARAAIARLAALQREVSAKLNELEAK
B24: traf2_out_12_50_976 (protein)
chain: GPEEEEEAENERFREEADRILAERDRVWAATGGDTAAAAAALIERAKKSKEDAKLALAVARALLSELLQRGEDTSVIAAAIDEIEKILEELEEKEEAAKK
B25: traf2_out_20_3_2217 (protein)
chain: EELKERIRRELERIRELLERARPLLPAEDYERLRRLLEEAEEALETDLTDALVKLSELRRLALRLAQEARAAGNAELAALLEEMAERANRAAGLVLKAIE
B26: traf2_out_8_144_2536 (protein)
chain: MLTRRELANRLANILVEIDELIEKADPETKKVLTEARRHVGQALNLVVFGGPREEILKELEKAAKKLKEAIKLVADDPELKAKAEAALKEVEAIIKDVKK
B27: traf2_out_13_95_1049 (protein)
chain: SAETAKKIMEVADEMEEKALKLLEEAKAKVADDPAASAVMDEALDLAEKRGISEAIHLLRQAQAADPAHKAEFDALIKELEKLRKEAGKKVAEILKEEKE
B28: traf2_out_17_162_1562 (protein)
chain: SALEKRWEELKKRLEELKKRVEELKEKLKNLENMSPEEIRDLLVEASEVKREARRLAEEAKKLKEEIGEEEAQKLIDEANEIAEEAQRIANKLYKALLEK
B29: traf2_out_20_3_2203 (protein)
chain: EELLKELEKELEEALKLLKKARELADPETAKRLEELIKRLKASRELSLDDRLVVLSEIRAEVLRLAQEARARGDEELAAVLEEAADKLQRAMNLVYKLIE

Molecular target: T1, TRAF2, Q12933
Assay: median log2 fold change of GCK-ALFA target abundance (FLAG IP / Myc IP barcode read proportion) (log2 ratio); each designed protein is fused to an ALFA-tag nanobody in HEK293 cells to bring the named protein to FLAG-tagged glucokinase (GCK); Myc marks an untargeted standard; higher = target protein stabilised (more abundant)
Settings: target protein: 3xFLAG-MCP-GCK-ALFA reporter; HEK293 landing pad (RPLP)
Summary of the method: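 An ALFA-nanobody-fused binder library was recombined into HEK293 landing-pad cells and induced with 2 μg mL^−1 doxycycline. Cells were transfected with a plasmid expressing a FLAG-tagged target and a Myc-tagged standard. After 48 h, lysates underwent anti-FLAG and anti-Myc immunoprecipitation, and circular RNA barcodes were reverse transcribed, amplified and sequenced. Target abundance is the per-binder median log2 ratio of FLAG to Myc barcode read proportions. Barcodes needed ≥10^−7 proportion in both replicates, binders ≥3 barcodes per replicate, and a 10^−6 pseudocount was added; the two replicates were pooled.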

Row | Binder | median log2 fold change
1 | B1 | -0.264
2 | B2 | 0.00446
3 | B3 | -0.0346
4 | B4 | 0.0998
5 | B5 | -0.457
6 | B6 | -0.486
7 | B7 | -0.242
8 | B8 | -0.0768
9 | B9 | 0.0539
10 | B10 | 0.162
11 | B11 | -0.365
12 | B12 | -0.354
13 | B13 | -0.224
14 | B14 | 0.157
15 | B15 | -0.559
16 | B16 | 0.227
17 | B17 | 0.115
18 | B18 | -0.275
19 | B19 | 0.103
20 | B20 | 0.3
21 | B21 | 0.429
22 | B22 | 0.483
23 | B23 | 0.214
24 | B24 | 0.33
25 | B25 | 0.0974
26 | B26 | -0.0794
27 | B27 | 0.156
28 | B28 | 0.177
29 | B29 | 0.571
